This note sets out measurements from publication PMC6919601, “Identification of Plasmodium dipeptidyl aminopeptidase allosteric inhibitors by high throughput screening” (PLoS ONE, 2019).

Each structure is given as a SMILES string. Several values for one entry are separate records, joined by “and”; a condition that tells them apart may be missing. Identical values can stand only once. About 230 (0.21%) of roughly 110,000 compounds showed an effect of 50% or more. The list shows a part of the results.
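Further: 30 min substrate incubation versus DMSO and 10 µM JCP410 controls.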

The target of the assay is DPAP1 (Plasmodium falciparum, UniProt Q8IIJ9). Description: primary screen, percent inhibition; read by cleavage of a fluorogenic dipeptide substrate; higher = more effect of the substance. Also noted: species or system P. falciparum D10 trophozoite lysates; single well.
Chain of DPAP1 (Q8IIJ9 whole entry, looked up): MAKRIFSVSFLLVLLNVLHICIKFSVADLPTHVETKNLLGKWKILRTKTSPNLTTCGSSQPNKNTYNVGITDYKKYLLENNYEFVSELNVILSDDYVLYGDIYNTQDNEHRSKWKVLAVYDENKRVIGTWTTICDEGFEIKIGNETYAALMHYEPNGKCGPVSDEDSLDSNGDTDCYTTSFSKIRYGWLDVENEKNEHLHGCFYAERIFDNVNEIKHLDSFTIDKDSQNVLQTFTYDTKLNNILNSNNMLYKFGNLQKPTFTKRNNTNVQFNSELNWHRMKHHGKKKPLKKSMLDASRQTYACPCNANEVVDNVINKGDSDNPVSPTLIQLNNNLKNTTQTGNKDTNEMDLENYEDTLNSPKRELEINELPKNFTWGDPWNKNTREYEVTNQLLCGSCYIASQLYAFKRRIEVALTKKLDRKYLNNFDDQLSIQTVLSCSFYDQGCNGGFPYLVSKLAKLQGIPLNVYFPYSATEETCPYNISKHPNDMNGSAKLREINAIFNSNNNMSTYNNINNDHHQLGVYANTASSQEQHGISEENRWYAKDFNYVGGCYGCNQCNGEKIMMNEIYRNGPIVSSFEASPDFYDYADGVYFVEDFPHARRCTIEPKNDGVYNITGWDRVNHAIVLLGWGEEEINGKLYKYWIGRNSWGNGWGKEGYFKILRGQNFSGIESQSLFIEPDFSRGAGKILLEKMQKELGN
As for `CCOc1ccc(CNCCc2ccc(Cl)cc2)cc1`, the “% Inhibition @ 10 uM” value came to 4.55%.

As for `Cc1ccc(C(=O)Nc2ccc(C)c(O)c2)cc1`, the “% Inhibition @ 10 uM” value is recorded as -0.872%.

For `COC(=O)c1c(O)[n+]([O-])c2cc(Cl)c(Cl)cc2[n+]1[O-]`, the “% Inhibition @ 10 uM” value was -3.41%.

As to `CSC1=C(C(N)=O)C(c2ccccc2)C(C#N)C(=O)N1` (stereo not drawn), the “% Inhibition @ 10 uM” value is recorded as -3.04%.

Consider `O=C(C1CCCO1)N1CCN(c2ccc(F)cc2)CC1` (stereo not drawn), for which the “% Inhibition @ 10 uM” value is 2.03%.

`Cc1cccc(C(=O)Nc2ccc(-c3cn4cccnc4n3)cc2)c1`: the “% Inhibition @ 10 uM” value was -11.4%.

In the case of `CCOC(=O)/C(C#N)=C/c1c(Oc2ccc(C(C)(C)C)cc2)nc2c(C)cccn2c1=O`, the “% Inhibition @ 10 uM” value is recorded as -1.43%.

`CCCNC(=O)CSCc1nc(-c2ccc(OCC)cc2)oc1C`: the “% Inhibition @ 10 uM” value is on record as 3.93%.

On to `CC(C)(C)/C(O)=C/C1=NC2CCCCC2N=C1/C=C(\O)C(C)(C)C` (stereo not drawn), for which the “% Inhibition @ 10 uM” value was -1.84%.

With `C=Cc1ccc(Cn2c(C(=O)O)c(CNCc3ccc(Cl)cc3)c3ccc(C)cc32)cc1`, the “% Inhibition @ 10 uM” value is given as -5.04%.

With `CCCNC(=O)c1csc2c1CCCCC2`, the “% Inhibition @ 10 uM” value was found to be 1.93%.

As to `CC(=O)c1ccc(NCN2C(=O)C3CC=C(Cl)CC3C2=O)cc1` (stereo not drawn), the “% Inhibition @ 10 uM” value is 2.45%.

For the compound `COc1ccc(OCc2nc(C#N)c(NCCc3ccccc3)o2)cc1`, the “% Inhibition @ 10 uM” value is given as -1.98%.

Turning to `Cc1ccc(S(=O)(=O)N(CC(=O)NCC2CCCO2)c2cc(Cl)ccc2C)cc1` (stereo not drawn), the “% Inhibition @ 10 uM” value is -3%.

Take `CCOc1cc(C2CC(=O)NC(SCc3ccccc3)=C2C#N)ccc1O` (stereo not drawn): the “% Inhibition @ 10 uM” value is -3.46%.

Take `COc1cc(C2Nc3ccccc3N=C3CC(C)(C)CC(O)=C32)cc(OC)c1OC` (stereo not drawn): the “% Inhibition @ 10 uM” value is -0.968%.

For `O=C(NCCCc1nc2ccccc2n1CC1CC1(Cl)Cl)c1ccco1` (stereo not drawn), the “% Inhibition @ 10 uM” value is reported as -2.99%.

`Cc1nc2nc(SCc3cc(=O)n4c(C)cccc4n3)nn2c(C)c1Cc1ccc(F)cc1Cl`: the “% Inhibition @ 10 uM” value is reported as -0.519%.

For the compound `Cc1ccc(-c2c(NCCN3CCCC3)c(=O)c2=O)cc1`, the “% Inhibition @ 10 uM” value is listed as 1.69%.

Take `N#CCNC(=O)[C@H](CSCc1ccc([N+](=O)[O-])cc1)NC(=O)c1ccccc1`: the “% Inhibition @ 10 uM” value is reported as -6.98%.

As for `NC(=O)Nc1ccccc1C(=O)Nc1ccc(O)cc1`, the “% Inhibition @ 10 uM” value is -1.51%.

For `CN(C)CCC(=O)C12CC3CC(CC(C3)C1)C2`, the “% Inhibition @ 10 uM” value was -2.7% and -3.48%.

With `O=C(NCCCN1CCOCC1)c1cc2c(s1)-c1ccc(Cl)cc1S(=O)(=O)C2`, the “% Inhibition @ 10 uM” value is 4.14%.

With `COc1ccc(Cl)cc1S(=O)(=O)N1CCCC(C(=O)O)C1` (stereo not drawn), the “% Inhibition @ 10 uM” value was -1.31%.

`COc1ccc(CCNC(=O)c2nn(C)c3c2CSc2ccccc2-3)c(OC)c1`: the “% Inhibition @ 10 uM” value is 1.47%.

On to `Cc1ccc(S(=O)(=O)N(OCc2ccccc2)C(C)C(=O)O)cc1` (stereo not drawn), for which the “% Inhibition @ 10 uM” value is on record as -2.83%.

Turning to `CC(=O)Nc1cc(-c2ccc(C)cc2)nn1Cc1cccc(Cl)c1`, the “% Inhibition @ 10 uM” value is recorded as 1.76%.
